For 22 cell lines, AUC and IC50 results are on record in the supplement of paper PMC4967469.

The IC50 comes from the fitted curve, where viability falls to half of the control; a fit beyond the top or the lowest dose is shown as a bound at that dose. AUC, from the same fit, is the share of area under the viability curve across the 256-fold dose range; it is 1 without any effect and falls as sensitivity rises. Any top dose called inferred was derived from the fitted curves, not read from the paper. For some of these results: Drugs with an entry number were screened twice under separate entries, and the two screens often disagree. Some results are limits rather than exact numbers.

Compound in one test: Cc1cc(N2CCOCC2)cc2[nH]c(-c3c(NC[C@@H](O)c4cccc(Cl)c4)cc[nH]c3=O)nc12 [BMS-536924]
The experiment in a line: Viability of human cancer cell lines after 72 h of drug (GDSC screen). To be noted: top dose 4 µM; screen: GDSC drug entry 1091; top dose inferred. As to the method:
(§1)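 Human cancer cell lines in 384-well plates, medium with 10% serum, drug for 72 h over a 256-fold dose range (nine 2-fold or five 4-fold steps up to the top dose). Adherent lines were fixed and stained with the nucleic acid dye Syto60, suspension lines read with resazurin; signal relative to control wells, capped at 0 and 100%. One two-parameter sigmoid per drug and line, fitted in a mixed model over all curves with the slope shared within a line.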
As usually defined, the IC50 is the concentration at which inhibition is half-maximal. Consider HDLM-2 (Hodgkin lymphoma, suspension), for which the AUC amounted to 0.925 and the IC50 is over 4 µM.
Regarding HH (T-cell leukaemia, suspension), the AUC is 0.964 and the IC50 was over 4 µM.
Turning to HT (B-cell lymphoma, suspension), the AUC turned out to be 0.977 and the IC50 is over 4 µM.
For IMR-5 (neuroblastoma, adherent) the same measures were 0.969 and over 4 µM.
Consider “IST-SL1 (small cell lung carcinoma, semi-adherent)”, for which the AUC turned out to be 0.963 and the IC50 is over 4 µM.
For JM1 (B-cell lymphoma, suspension), in that order: 0.954 and over 4 µM.
As to JVM-2 (lymphoid neoplasm, suspension), the AUC was found to be 0.939 and the concentration for half-maximal inhibition (IC50) is over 4 µM.
For JVM-3 (lymphoid neoplasm, suspension) the same measures were 0.894 and over 4 µM.
For “JiyoyeP-2003 (Burkitt lymphoma, suspension)” the same measures were 0.981 and over 4 µM.
For “KARPAS-45 (lymphoblastic leukaemia, suspension)”, in that order: 0.979 and over 4 µM.
For the cell line “KARPAS-299 (anaplastic large cell lymphoma, suspension)”, the AUC is 0.872 and the IC50 was 2.76 µM.
For “KARPAS-422 (B-cell lymphoma, suspension)” the same measures were 0.966 and over 4 µM.
For “KE-37 (lymphoblastic leukaemia, suspension)”, in that order: 0.988 and over 4 µM.
In the case of KM-H2 (Hodgkin lymphoma, suspension), the AUC was determined as 0.991 and the IC50 is over 4 µM.
For “KMOE-2 (acute myeloid leukaemia, suspension)”, in that order: 0.888 and 3.65 µM.
For KNS-81-FD (glioma, adherent), in that order: 0.958 and over 4 µM.
For KS-1 (glioma, adherent), in that order: 0.736 and 1.42 µM.
As to “KU812 (chronic myeloid leukaemia, suspension)”, the AUC worked out at 0.896 and the IC50 was over 4 µM.
For KY821 (leukaemia, suspension) the same measures were 0.915 and over 4 µM.
For L-363 (myeloma, suspension) the same measures were 0.6 and 0.452 µM.
For L-540 (Hodgkin lymphoma, suspension), in that order: 0.877 and 3.25 µM.
As to L-1236 (Hodgkin lymphoma, suspension), the AUC was 0.814 and the IC50 was found to be 1.77 µM.

Staying with this test, now noted: top dose 5.12 µM; screen: GDSC drug entry 62.
Take HDLM-2 (Hodgkin lymphoma, suspension): the AUC was 0.949 and the IC50 is over 5.12 µM.
For HH (T-cell leukaemia, suspension), in that order: 0.917 and over 5.12 µM.
For HT (B-cell lymphoma, suspension) the same measures were 0.99 and over 5.12 µM.
For IMR-5 (neuroblastoma, adherent) the same measures were 0.918 and over 5.12 µM.
With “IST-SL1 (small cell lung carcinoma, semi-adherent)”, the AUC was 0.963 and the IC50 was over 5.12 µM.
For JM1 (B-cell lymphoma, suspension) the same measures were 0.928 and over 5.12 µM.
For JVM-2 (lymphoid neoplasm, suspension) the same measures were 0.888 and over 5.12 µM.
On to JVM-3 (lymphoid neoplasm, suspension), for which the AUC was 0.987 and the IC50 is over 5.12 µM.
For “JiyoyeP-2003 (Burkitt lymphoma, suspension)” the same measures were 0.871 and 3.86 µM.
For “KARPAS-45 (lymphoblastic leukaemia, suspension)” the same measures were 0.837 and 2.65 µM.
For “KARPAS-299 (anaplastic large cell lymphoma, suspension)” the same measures were 0.826 and 2.42 µM.
With “KARPAS-422 (B-cell lymphoma, suspension)”, the AUC turned out to be 0.98 and the IC50 is over 5.12 µM.
For “KE-37 (lymphoblastic leukaemia, suspension)”, in that order: 0.994 and over 5.12 µM.
For KM-H2 (Hodgkin lymphoma, suspension), in that order: 0.933 and over 5.12 µM.
Take “KMOE-2 (acute myeloid leukaemia, suspension)”: the AUC came to 0.936 and the IC50 is over 5.12 µM.
For KNS-81-FD (glioma, adherent) the same measures were 0.957 and over 5.12 µM.
KS-1 (glioma, adherent): the AUC came out at 0.354 and the IC50 came out at 0.114 µM.
For “KU812 (chronic myeloid leukaemia, suspension)”, in that order: 0.949 and over 5.12 µM.
KY821 (leukaemia, suspension): the AUC is 0.863 and the IC50 was found to be 3.53 µM.
For L-363 (myeloma, suspension) the same measures were 0.501 and 0.321 µM.
For the cell line L-540 (Hodgkin lymphoma, suspension), the AUC is 0.894 and the IC50 is 4.99 µM.
For L-1236 (Hodgkin lymphoma, suspension) the same measures were 0.701 and 1.06 µM.

Compound in another test: COc1cc(-c2nn([C@H]3CC[C@H](N4CCN(C(C)=O)CC4)CC3)c3ncnc(N)c23)ccc1NC(=O)c1cc2ccccc2n1C [A-770041]
The description is as above. To be noted: top dose 5.12 µM; top dose inferred. As for the experimental part:
as §1
Take HDLM-2 (Hodgkin lymphoma, suspension): the AUC worked out at 0.728 and the IC50 stood at 1.41 µM.
For HH (T-cell leukaemia, suspension) the same measures were 0.854 and over 5.12 µM.
For HT (B-cell lymphoma, suspension) the same measures were 0.937 and over 5.12 µM.
For IMR-5 (neuroblastoma, adherent), in that order: 0.827 and 2.49 µM.
Regarding “IST-SL1 (small cell lung carcinoma, semi-adherent)”, the AUC came to 0.97 and the IC50 is over 5.12 µM.
For JM1 (B-cell lymphoma, suspension), the AUC was 0.956 and the concentration for half-maximal inhibition (IC50) is over 5.12 µM.
For JVM-2 (lymphoid neoplasm, suspension), in that order: 0.901 and over 5.12 µM.
JVM-3 (lymphoid neoplasm, suspension): the AUC amounted to 0.987 and the IC50 was over 5.12 µM.
For “JiyoyeP-2003 (Burkitt lymphoma, suspension)” the same measures were 0.822 and 2.52 µM.
In the case of “KARPAS-45 (lymphoblastic leukaemia, suspension)”, the AUC was 0.826 and the IC50 came out at 2.43 µM.
For “KARPAS-299 (anaplastic large cell lymphoma, suspension)”, in that order: 0.889 and 4.14 µM.
For “KARPAS-422 (B-cell lymphoma, suspension)”, in that order: 0.932 and over 5.12 µM.
For “KE-37 (lymphoblastic leukaemia, suspension)” the same measures were 0.953 and over 5.12 µM.
As for KM-H2 (Hodgkin lymphoma, suspension), the AUC stood at 0.979 and the half-maximal inhibitory concentration (IC50) was over 5.12 µM.
For “KMOE-2 (acute myeloid leukaemia, suspension)” the same measures were 0.988 and over 5.12 µM.
For KNS-81-FD (glioma, adherent), in that order: 0.979 and over 5.12 µM.
For KS-1 (glioma, adherent), in that order: 0.64 and 0.864 µM.
“KU812 (chronic myeloid leukaemia, suspension)”: the AUC came to 0.812 and the IC50 was determined as 2.44 µM.
With KY821 (leukaemia, suspension), the AUC amounted to 0.834 and the IC50 turned out to be 2.75 µM.
For L-363 (myeloma, suspension) the same measures were 0.968 and over 5.12 µM.
For L-540 (Hodgkin lymphoma, suspension), in that order: 0.98 and over 5.12 µM.
